Experiment [1] deals with RAW-Dual. The experiment in a line: IRF Lucia reporter activity, fold change vs agonist alone; higher = enhanced IRF activity. To be noted: agonist: MPLA (TLR4) […]. An outline of the steps: (§1)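 Reporter activity is given as fold change relative to agonist-alone wells. To measure it, 50 nL of library stock was pin-tooled onto RAW-Dual macrophages (50,000 cells/well, DMEM, 384-well plates), a PRR agonist followed 1 h later, and cells stayed at 37 °C, 5% CO2. Twenty hours on, supernatant was assayed for IRF (QuantiLuc luminescence) and NF-κB (QuantiBlue, 620 nm absorbance), and wells under 70% of agonist-control IncuCyte confluency in both mask sets were marked cytotoxic.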

In experiment [2] the test system is RAW-Dual. Put plainly: IRF Lucia reporter activity, fold change vs agonist alone; cytotoxicity flag (confluency mask): not cytotoxic; higher = enhanced IRF activity. An outline of the steps: as §1
In experiment [3] the test system is RAW-Dual. Put plainly: IRF Lucia reporter activity, fold change vs agonist alone; cytotoxicity flag (confluency mask): cytotoxic (confluency <70% of control); higher = enhanced IRF activity. An outline of the steps: as §1
The mark [4] stands for this setting: library stock concentration (final ~1000-fold dilution): 10 mM, cytotoxicity flag (confluency mask): not cytotoxic.
[5] abbreviates: agonist: 3'3'-cGAMP (STING) 10 ug/mL.
Where [6] appears, read: library stock concentration (final ~1000-fold dilution): 10 mM water, cytotoxicity flag (confluency mask): not cytotoxic.

Structures are written as SMILES. In all, about 2,900 compounds were measured (“IRF Lucia reporter activity, fold change vs agonist alone”: median about 0.9, highest 2% from about 2.8 on). This is one part of the list.

For `O=C(NCCN1CCOCC1)Nc1nc2ccc(Sc3nnc4ccc(-c5ccc(F)cc5)nn34)cc2s1`, in the experiment on RAW-Dual [1] (setting [4]), the “IRF Lucia reporter activity” value came to 0.994. As for `O=C(NCCN1CCOCC1)Nc1nc2ccc(Sc3nnc4ccc(-c5ccc(F)cc5)nn34)cc2s1` (library stock concentration (final ~1000-fold dilution): 10 mM), the “IRF Lucia reporter activity” value in the experiment on RAW-Dual [2] (setting [5]) was determined as 1.09; in the experiment with RAW-Dual [2] (agonist: LPS (TLR4) 0.1 ug/mL), 1.23. Consider `CC1(C)SC2CC(=O)N2C1C(=O)OCOC(=O)C1N2C(=O)C(NC(=O)C(N)c3ccccc3)C2S(=O)(=O)C1(C)C.Cc1ccc(S(=O)(=O)O)cc1` (centres undefined), for which the “IRF Lucia reporter activity” value in the experiment on RAW-Dual [1] (setting [4]) was 0.995.

Take `CC1(C)SC2CC(=O)N2C1C(=O)OCOC(=O)C1N2C(=O)C(NC(=O)C(N)c3ccccc3)C2S(=O)(=O)C1(C)C.Cc1ccc(S(=O)(=O)O)cc1` (centres undefined) (library stock concentration (final ~1000-fold dilution): 10 mM): the entries for the “IRF Lucia reporter activity” value in the experiment on RAW-Dual [2] (setting [5]) and in the experiment with RAW-Dual [2] (agonist: LPS (TLR4) 0.1 ug/mL) were 1 and 0.905, respectively. As for `COc1cc2c3cc1Oc1c(OC)c(OC)cc4c1C(Cc1ccc(O)c(c1)Oc1ccc(cc1)CC3N(C)CC2)N(C)CC4.Cl.Cl` (centres undefined) (library stock concentration (final ~1000-fold dilution): 10 mM), the “IRF Lucia reporter activity” value in the experiment on RAW-Dual [2] (setting [5]) came out at 0.764; in the experiment with RAW-Dual [2] (agonist: LPS (TLR4) 0.1 ug/mL), 0.916. In the case of `COc1cc2c3cc1Oc1c(OC)c(OC)cc4c1C(Cc1ccc(O)c(c1)Oc1ccc(cc1)CC3N(C)CC2)N(C)CC4.Cl.Cl` (centres undefined), the “IRF Lucia reporter activity” value with RAW-Dual [1] (setting [4]) amounted to 1.26.

Consider `Nc1ccn(C2OC(CO)C(O)C2O)c(=O)n1` (centres undefined) (library stock concentration (final ~1000-fold dilution): 10 mM water), for which the “IRF Lucia reporter activity” value came out at 0.909 with RAW-Dual [2] (setting [5]) and 0.832 in the experiment with RAW-Dual [2] (agonist: LPS (TLR4) 0.1 ug/mL). `Nc1ccn(C2OC(CO)C(O)C2O)c(=O)n1` (centres undefined): in the experiment with RAW-Dual [1] (setting [6]), the “IRF Lucia reporter activity” value came out at 1.3. With `COc1ccc2cc1Oc1ccc(cc1)CC1c3cc(c(OC)cc3CCN1C)Oc1c(O)c(OC)cc3c1C(C2)N(C)CC3` (centres undefined), in the experiment on RAW-Dual [1] (library stock concentration (final ~1000-fold dilution): 10 mM, cytotoxicity flag (confluency mask): cytotoxic (confluency <70% of control)), the “IRF Lucia reporter activity” value was found to be 2.82. Turning to `COc1ccc2cc1Oc1ccc(cc1)CC1c3cc(c(OC)cc3CCN1C)Oc1c(O)c(OC)cc3c1C(C2)N(C)CC3` (centres undefined) (library stock concentration (final ~1000-fold dilution): 10 mM), the figures for the “IRF Lucia reporter activity” value in the experiment on RAW-Dual [3] (setting [5]) and in the experiment on RAW-Dual [3] (agonist: LPS (TLR4) 0.1 ug/mL) were 1.21 and 1.55, respectively.

Consider `Cn1cc(-c2[nH]c3cc(NC(=O)C(N)C4CCCCC4)cc4c3c2C=NNC4=O)cn1` (centres undefined) (library stock concentration (final ~1000-fold dilution): 10 mM), for which the “IRF Lucia reporter activity” value with RAW-Dual [2] (setting [5]) is 0.209; with RAW-Dual [2] (agonist: LPS (TLR4) 0.1 ug/mL), 0.213. `Cn1cc(-c2[nH]c3cc(NC(=O)C(N)C4CCCCC4)cc4c3c2C=NNC4=O)cn1` (centres undefined): the “IRF Lucia reporter activity” value with RAW-Dual [1] (setting [4]) worked out at 0.374. `CC(C=CC1=C(C)CCCC1(C)C)=CC=CC(C)=CC(=O)O` (library stock concentration (final ~1000-fold dilution): 1 mM): the “IRF Lucia reporter activity” value in the experiment on RAW-Dual [2] (setting [5]) came out at 0.568; in the experiment with RAW-Dual [2] (agonist: LPS (TLR4) 0.1 ug/mL), 0.167. On the same counts, the results for `O=C(O)c1ccnc(C(=O)O)c1` (library stock concentration (final ~1000-fold dilution): 10 mM) are 1.04 and 1.03. As to `O=C(O)c1ccnc(C(=O)O)c1`, the “IRF Lucia reporter activity” value with RAW-Dual [1] (setting [4]) was found to be 1.01. As for `CC(=O)NC(CC(=O)O)C(=O)NC(CCC(=O)O)C(=O)NC(C(=O)NC(C=O)CC(=O)O)C(C)C` (centres undefined) (library stock concentration (final ~1000-fold dilution): 10 mM water), the “IRF Lucia reporter activity” value in the experiment with RAW-Dual [2] (setting [5]) was 1.37; in the experiment with RAW-Dual [2] (agonist: LPS (TLR4) 0.1 ug/mL), 0.992.

On to `Cl.Clc1ccccc1CN1CCc2sccc2C1` (library stock concentration (final ~1000-fold dilution): 10 mM water), for which the “IRF Lucia reporter activity” value came to 1.07 with RAW-Dual [2] (setting [5]) and 0.892 in the experiment on RAW-Dual [2] (agonist: LPS (TLR4) 0.1 ug/mL). On to `Cl.Clc1ccccc1CN1CCc2sccc2C1`, for which the “IRF Lucia reporter activity” value with RAW-Dual [1] (setting [6]) came to 1.32.

With `CN(CCCCCCCCCCN(C)C(=O)Oc1cccc([N+](C)(C)C)c1)C(=O)Oc1cccc([N+](C)(C)C)c1` (library stock concentration (final ~1000-fold dilution): 10 mM), the “IRF Lucia reporter activity” value in the experiment with RAW-Dual [2] (setting [5]) was 1.12; in the experiment with RAW-Dual [2] (agonist: LPS (TLR4) 0.1 ug/mL) it was 0.993.

On to `CCCc1cc(C)[nH]c(=O)c1CNC(=O)c1cc(-c2ccnc(N3CCN(C)CC3)c2)cc2c1cnn2C(C)C`, for which, in the experiment on RAW-Dual [1] (library stock concentration (final ~1000-fold dilution): 2 mM, cytotoxicity flag (confluency mask): not cytotoxic), the “IRF Lucia reporter activity” value worked out at 1.54.

As for `CCCc1cc(C)[nH]c(=O)c1CNC(=O)c1cc(-c2ccnc(N3CCN(C)CC3)c2)cc2c1cnn2C(C)C` (library stock concentration (final ~1000-fold dilution): 2 mM), the “IRF Lucia reporter activity” value in the experiment on RAW-Dual [2] (setting [5]) worked out at 1; in the experiment with RAW-Dual [2] (agonist: LPS (TLR4) 0.1 ug/mL) it was 0.994.

Take `Cc1c(C(=O)Nc2ccc(N3CC(C)OC(C)C3)nc2)cccc1-c1ccc(OC(F)(F)F)cc1` (centres undefined): the “IRF Lucia reporter activity” value in the experiment on RAW-Dual [1] (setting [4]) is 1.51. Take `Cc1c(C(=O)Nc2ccc(N3CC(C)OC(C)C3)nc2)cccc1-c1ccc(OC(F)(F)F)cc1` (centres undefined) (library stock concentration (final ~1000-fold dilution): 10 mM): the “IRF Lucia reporter activity” value in the experiment on RAW-Dual [2] (setting [5]) turned out to be 0.587; with RAW-Dual [2] (agonist: LPS (TLR4) 0.1 ug/mL) it was 0.873. Take `CNC(C)C(=O)NC(C(=O)N1CCCC1C(=O)NC1c2ccccc2CC1OCC#CC#CCOC1Cc2ccccc2C1NC(=O)C1CCCN1C(=O)C(NC(=O)C(C)NC)C1CCCCC1)C1CCCCC1` (centres undefined): in the experiment on RAW-Dual [1] (library stock concentration (final ~1000-fold dilution): 10 mM water, cytotoxicity flag (confluency mask): cytotoxic (confluency <70% of control)), the “IRF Lucia reporter activity” value came out at 1.09. Consider `CNC(C)C(=O)NC(C(=O)N1CCCC1C(=O)NC1c2ccccc2CC1OCC#CC#CCOC1Cc2ccccc2C1NC(=O)C1CCCN1C(=O)C(NC(=O)C(C)NC)C1CCCCC1)C1CCCCC1` (centres undefined) (library stock concentration (final ~1000-fold dilution): 10 mM water), for which the results for the “IRF Lucia reporter activity” value with RAW-Dual [3] (setting [5]) and in the experiment with RAW-Dual [3] (agonist: LPS (TLR4) 0.1 ug/mL) were 0.647 and 0.243, respectively.

The record behind these values is the supplement of paper PMC10037445.
